Laboratory results: the supplement of paper PMC4604168 (melanoma cell lines)
This is one part of the list. Most values come without repeats; read them as rough.

What follows are molecules tested on IPC-298 (assay: cell count relative to DMSO control; melanoma cells; higher = more viable cells). Details: library dose: low library concentration; 72 h.
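Further: cell number obtained by counting DAPI-stained nuclei in high-throughput microscope images with image analysis software, screen run in 1,536-well plates.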

SMILES | cell count
COc1ccc(C2=N[C@@H](c3ccc(Cl)cc3)[C@@H](c3ccc(Cl)cc3)N2C(=O)N2CCNC(=O)C2)c(OC(C)C)c1 [Nutlin-3] + CC(C)C[C@H](NC(=O)[C@H](Cc1ccccc1)NC(=O)c1cnccn1)B(O)O [Bortezomib] (first compound 0.1 µM, partner dose 0.001 µM) | 88.7%
CC(C)C[C@H](NC(=O)[C@H](Cc1ccccc1)NC(=O)c1cnccn1)B(O)O [Bortezomib] + CNC(=O)c1cc(Oc2ccc(NC(=O)Nc3ccc(Cl)c(C(F)(F)F)c3)cc2)ccn1 [sorafenib] (first compound 0.001 µM, partner dose 0.4 µM) | 60.7%
Cc1cc(Nc2cc(N3CCN(C)CC3)nc(/C=C/c3ccccc3)n2)n[nH]1 + Nc1ccn([C@@H]2O[C@H](CO)[C@@H](O)C2(F)F)c(=O)n1 [gemcitabine] (first compound 0.04 µM, partner dose 0.0004 µM) | 98.6%
CC(C)C[C@H](NC(=O)[C@H](Cc1ccccc1)NC(=O)c1cnccn1)B(O)O [Bortezomib] + Cc1nc(Nc2ncc(C(=O)Nc3c(C)cccc3Cl)s2)cc(N2CCN(CCO)CC2)n1 [dasatanib] (first compound 0.001 µM, partner dose 0.004 µM) | 73.4%
COc1ccc(C2=N[C@@H](c3ccc(Cl)cc3)[C@@H](c3ccc(Cl)cc3)N2C(=O)N2CCNC(=O)C2)c(OC(C)C)c1 [Nutlin-3] + C[C@@H](Oc1cc(-c2cnn(C3CCNCC3)c2)cnc1N)c1c(Cl)ccc(F)c1Cl [Crizotinib] (first compound 0.1 µM, partner dose 0.2 µM) | 105%
